Binding signal data for 14 molecules are collected here from publication PMC12136788.

The other results are listed elsewhere or left out.

The chains are these.
B1: chr11:95166718:95166819:-|3pUTR|ENSG00000149212|unk|total|mutant (ssRNA)
RNA: GGGAGUUCUACAGUCCGACGAUCACAGUUUCCCCUUCCUCUUUCUCUUCACAUUUACUCUUUUCAACCCAAAAUAAGAGACACCGAAAGCAAACCACAGCCAGUUUGGCAUCUUCUCAGUGCUACCCGUACCGGCACAUACACCAACAGAGGAUUGAGCAUCA
B2: ENSG00000143799:stop:overlap|stop_codon|ENSG00000143799|stop_codon|NA|stop_codon (ssRNA)
RNA: GGGAGUUCUACAGUCCGACGAUCACCAGCAGAAAGUCAAGAAGACAGCGGAAGCUGGAGGAGUGACAGAAAAGAAGCUCUAUUAGCUGACCACGGUUGUUACAAACAGACAGAUGAGAUGGACCAAUCGUAGUCUCCCAAGGCCAACAGAGGAUUGAGCAUCA
B3: chr2:43888187:43888297:-|3pUTR|ENSG00000138095|unk|FALSE|unique (ssRNA)
RNA: GGGAGUUCUACAGUCCGACGAUCAAAAUGUUAUUCCUUUAUUUAAGAUUCACUUAUUAGUCUGCUGUUUCUCUGAAAAAUUUUAGAGCUAGGUAUAGUGACCGUGAACUUUCUAACGCAUAAUAUUCUGUGAUACAGCCAUUCCAACAGAGGAUUGAGCAUCA
B4: chr8:23842320:23842421:-|3pUTR|ENSG00000159167|msi1|FALSE|unique (ssRNA)
RNA: GGGAGUUCUACAGUCCGACGAUCUAUGUAUCUACAAUACAUAUAUCUACACAUACAGAAAGAAGCAGUUCUCACAAUGUUGCUAGUUUUUUGCUUCUCUUUCCCCCACCCUACUCCCUCCAAUUCCCCCUUAAACUUCCAAAGCAACAGAGGAUUGAGCAUCA
B5: chr10:91630394:91630495:-|CDS|ENSG00000119938|unk|FALSE|unique (ssRNA)
RNA: GGGAGUUCUACAGUCCGACGAUCCUUGGACCUUAAUGAUAUCUCCUCUGCCUUAAAACACCACGAGGAGAAAAACUUGAUUUUAGAUUUCCCUCAGCCUUCAACCGAUUACUUAAGUUUCCGGAGCCACUUUCAGAAGAACUUCAACAGAGGAUUGAGCAUCA
B6: ENSG00000026025:stop:overlap|stop_codon|ENSG00000026025|stop_codon|NA|stop_codon (ssRNA)
RNA: GGGAGUUCUACAGUCCGACGAUCUGGCCCUUGACAUUGAGAUUGCCACCUACAGGAAGCUGCUGGAAGGCGAGGAGAGCAGGUAGGGAACUCAGACUUGGAUGCGUGAACUAAUGGUGACCAUUUGUUAGGCCCUGUGCCACUCAACAGAGGAUUGAGCAUCA
B7: chr19:42935403:42935769:-|CDS|ENSG00000221878|control|control|control (ssRNA)
RNA: GGGAGUUCUACAGUCCGACGAUCCUACAUCUGGUACAAAGGACAAAUCAGGGACCUCUACCAUUAUGUUACAUCAUAUAUAGUAGACGGUCAAAUAAUUAAAUAUGGGCCUGCAUACAGUGGACGAGAAACAGUAUAUUCCAACAACAGAGGAUUGAGCAUCA
B8: chr21:34788506:34788607:-|3pUTR|ENSG00000159216|msi1|FALSE|unique (ssRNA)
RNA: GGGAGUUCUACAGUCCGACGAUCUUGUUAAUGCCUAUAACUUUUUUUCAAUUUUUUUGUGUGUGUUUCUAAGGACUUUUUCUUAGGUUUGCUAAAUACUGUAGGGAAAAAAAUGCUUCUUUCUACUUUGUUUAUUUUAGACUUCAACAGAGGAUUGAGCAUCA
B9: chr17:77216858:77216994:+|3pUTR|ENSG00000129657|unk|total|mutant (ssRNA)
RNA: GGGAGUUCUACAGUCCGACGAUCUGUUUCUACCUUCCGUACCUUGCCACUCUUUUAAAACGCUGCUGUCAUUUCCCAUUUCUCCGUACUAAUGAUUCUUUGAUUCUCCCUCUAUUAUGUCUUAAUUCACUUUCCUUCCUAAAUCAACAGAGGAUUGAGCAUCA
B10: ENSG00000149294:stop:overlap|stop_codon|ENSG00000149294|stop_codon|NA|stop_codon (ssRNA)
RNA: GGGAGUUCUACAGUCCGACGAUCCUGCAUCCUACACCUUUGUCUCAUUGCUUUUCUCUGCAGUGACUCUUCUUUUGCUCUGUUAGGAACUUGAACACAAAAAUUAAAUUUGCUUAAAAGCCCAGUUCCUAUGAAAAAGAUCAGCAACAGAGGAUUGAGCAUCA
B11: chr10:51697484:51697585:-|3pUTR|ENSG00000177613|unk|total|mutant (ssRNA)
RNA: GGGAGUUCUACAGUCCGACGAUCAAUGGGUGCAAAAAGCUGACUUCUGUAUCCCCACACUUGGAUCCGGGUUUCCCUCCUCCCCGAACCUAAUCUUAUUUUUUGUUCUUUUUCUUUCUUUCUGUUUUCCUUUUUUUUUUAAUUCAACAGAGGAUUGAGCAUCA
B12: chrX:55006554:55006655:+|CDS|ENSG00000169188|unk|FALSE|unique (ssRNA)
RNA: GGGAGUUCUACAGUCCGACGAUCAGGGCGCAAGUGGAUGGACAGCUUGCUCAGUAACUUGGGGUGCCAGUCUGCCUCUCAUGUAGGGCCCUUCAUCGAUAGCUACCGCUGCUUCCAACCAAAGCAGGAGGGGGCCUUCACCUGCAACAGAGGAUUGAGCAUCA
B13: ENSG00000198589:be:win_4651|CDS|ENSG00000198589|bound_else_gene|NA|bound_elsewhere_windowed (ssRNA)
RNA: GGGAGUUCUACAGUCCGACGAUCAUUUUGGAACCCCAAAAUGAAAGGCAUAGCCAGUCAUGUACAGAAACUGGCAGUGAAAAUGAGAAUGUAUCACUCUCUGAAAUCACACCAGCAGCAUUCAGCACUUUAACUACGGCAUCACAACAGAGGAUUGAGCAUCA
B14: chr13:106491723:106491923:-|3pUTR|ENSG00000125266|msi1|total|mutant (ssRNA)
RNA: GGGAGUUCUACAGUCCGACGAUCCAGACUCAGCUGCUAUACUUAUCACAUUUUAUUAAACACAGGGAAAGCAUUCCGGAGAACCGCAGAGAGCCAAAUCUGACCUAAAAGUUGAAAAGCCAAAGGUCAAACAGGCUGUAAUUCCAACAGAGGAUUGAGCAUCA

This assay concerns the target MSI1 full-length (mouse, UniProt Q61474 1-362). As to the kind of experiment: nsRBNS (natural sequence RNA bind-n-seq); RBNS binding buffer (assumed for nsRBNS): 25 mM Tris pH 7.5, 150 mM KCl, 3 mM MgCl2, 0.01% Triton X-100, 500 ug/ml BSA, 20 U/ml SUPERase-In, 4 C; UNK is unkempt and MSI1 is Musashi-1; names of the RNAs are library labels; protein concentration not given here; high values mean tight binding.
Sequence of UniProt Q61474 (Q61474 whole entry): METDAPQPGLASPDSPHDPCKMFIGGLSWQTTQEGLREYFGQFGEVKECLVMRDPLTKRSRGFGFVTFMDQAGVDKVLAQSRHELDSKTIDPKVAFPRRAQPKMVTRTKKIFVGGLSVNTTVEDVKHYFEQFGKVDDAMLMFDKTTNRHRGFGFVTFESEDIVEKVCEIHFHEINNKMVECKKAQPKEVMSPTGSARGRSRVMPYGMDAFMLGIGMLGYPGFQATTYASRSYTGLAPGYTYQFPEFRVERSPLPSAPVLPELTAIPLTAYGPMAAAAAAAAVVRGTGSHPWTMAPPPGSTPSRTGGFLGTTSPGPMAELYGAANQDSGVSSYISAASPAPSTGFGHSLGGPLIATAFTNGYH
B1 gave a binding signal of 0.709 enrichment R.
Molecule B2 had a binding signal of 0.331 enrichment R.
Turning to B3, the binding signal turned out to be 3.28 enrichment R.
B4 gave a binding signal of 0.666 enrichment R.
The molecule B5 gave a binding signal of 0.264 enrichment R.
Molecule B6 gave a binding signal of 0.608 enrichment R.
B7 came in with a binding signal of 0.617 enrichment R.
As to B8, the binding signal was determined as 0.884 enrichment R.
With B9 the figure was 1.55 enrichment R; with B10, 0.87 enrichment R; with B11, 1.57 enrichment R.
To B12 belongs 0.534 enrichment R.
The molecule B13 returned a binding signal of 0.321 enrichment R.
Turning to B14, the binding signal was 1.47 enrichment R.
